Data from the supplement of paper PMC10600219.
Where a name gives a salt, the structure may show the parent alone. ± gives the standard deviation of the averaged measurements. Whole data set: some 2,800 compounds, median “cell viability relative to vehicle” near 0.98, cut for the lowest 2% near 0.45. Some of the results follow.

test system: NCI-H2228 alectinib-DTP; assay: cell viability relative to vehicle (fraction of vehicle); NCI-H2228 is an ALK-positive lung cancer line and DTP means drug-tolerant persister; higher = less growth inhibition; settings: 100 nM; treatment time 6 days
Summary of the method: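 Parental NCI-H2228 cells and drug-tolerant persister cells (made with 1000 nM of a targeted drug for 13 days) were seeded in 384-well plates. The next day, the 3114-agent TargetMol anti-cancer compound library was added at 100 nM, with DMSO as vehicle. After 6 days, ATP was read with the CellTiter-Glo 3D Cell Viability Assay. Each value is cell viability relative to vehicle-treated cells.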

Compound | cell viability
O=C(N[C@H]1CN2CCC1CC2)c1ccc(Cl)cc1 | 0.931
CC[C@H]1CN2CC[C@H]1C[C@@H]2[C@@H](O)c1ccnc2ccc(OC)cc12 [Hydroquinidine] | 0.987
COc1ccc(/C=C/c2cc(OC)cc(OC)c2)cc1 [Trimethoxystilbene] | 0.876
C=CC[C@]1(O)CC[C@H]2[C@@H]3CCC4=CCCC[C@@H]4[C@H]3CC[C@@]21C [Allylestrenol] | 0.995
NCC(CC(=O)O)c1ccccc1 (centres undefined) [Phenibut] | 1.03
NCCc1ccc(S(=O)(=O)F)cc1 [AEBSF hydrochloride] | 1.05
CN1[C@@H]2CC[C@H]1C[C@@H](OC(=O)[C@H](CO)c1ccccc1)C2 [L-Hyoscyamine] | 1
CCC(C)C(=O)O[C@@H]1[C@@H](OC(C)=O)[C@]2(C)[C@H](C(C)=O)CC[C@@]23O[C@]32CC[C@H]3C[C@@H](O[C@H]4C[C@@H](OC)[C@H](O[C@@H]5O[C@H](C)[C@@H](O)[C@@H](OC)[C@H]5O)[C@@H](C)O4)CC[C@]3(C)[C@@H]12 (some centres undefined) [Tenacissoside H] | 1.14
C[C@]12CC[C@H](O)C[C@H]1CC[C@@H]1[C@@H]2CC[C@]2(C)[C@@H](c3ccc(=O)oc3)CC[C@]12O [Bufalin] | 0.101
CC(C)N(CCC(C(N)=O)(c1ccccc1)c1ccccn1)C(C)C (centres undefined) [Disopyramide] | 0.95
C[C@@]12C[C@@H](c3ccoc3)OC(=O)[C@@H]1CC[C@]1(C)[C@H]2[C@@H]2C=C[C@@]1(O)C(=O)O2 [Columbin] | 1.21
CCO[C@H]1O[C@@H]2O[C@@]3(C)CC[C@H]4[C@H](C)CC[C@@H]([C@H]1C)[C@@]24OO3 [Arteether] | 0.856
CC(C)=CCOc1c2occc2cc2ccc(=O)oc12 [Imperatorin] | 0.925
N[C@@H](Cc1ccc(N(CCCl)CCCl)cc1)C(=O)O [Melphalan] | 0.917
CCCC[N+]1(C)[C@@H]2C[C@@H](OC(=O)[C@H](CO)c3ccccc3)C[C@H]1[C@@H]1O[C@@H]12 (some centres undefined) [Scopolamine butylbromide] | 0.906
S=C=NCc1ccccc1 [Benzyl isothiocyanate] | 1.13
Cc1cccc(C)c1NC(=O)CN1CCCC1=O [Nefiracetam] | 1.17
C=CCN1CC[C@]23c4c5ccc(O)c4O[C@H]2C(=O)CC[C@@]3(O)[C@H]1C5 [Naloxone hydrochloride] | 0.907
C[C@@H]1CC[C@@]2(OC1)O[C@H]1C[C@H]3[C@@H]4CC=C5C[C@@H](O[C@@H]6O[C@H](CO)[C@@H](O[C@@H]7O[C@@H](C)[C@H](O)[C@@H](O)[C@H]7O)[C@H](O)[C@H]6O[C@@H]6O[C@@H](C)[C@H](O)[C@@H](O)[C@H]6O)CC[C@]5(C)[C@H]4CC[C@]3(C)[C@H]1[C@@H]2C [Dioscin] | 0.873
Cn1cc(C2=C(c3cn(C4CCN(Cc5ccccn5)CC4)c4ccccc34)C(=O)NC2=O)c2ccccc21 [Enzastaurin] | 1.01
NC(=O)c1cc(N2CC2)c([N+](=O)[O-])cc1[N+](=O)[O-] [Tretazicar] | 0.945
CC(=O)O[C@H]1C[C@@H]2CC[C@@H]3[C@H](CC[C@@]4(C)[C@H]3C[C@H]([N+]3(C)CCCCC3)[C@@H]4OC(C)=O)[C@@]2(C)C[C@@H]1[N+]1(C)CCCCC1 [Pancuronium bromide] | 1.06

Compound | cell viability
C[N+]1([O-])[C@@H]2CC(OC(=O)[C@H](CO)c3ccccc3)C[C@H]1[C@@H]1O[C@@H]12 (some centres undefined) [Scopolamine N-oxide HBr] | 1.07
CN1Cc2c(ccc3c2OCO3)[C@@H]2[C@H]1c1cc3c(cc1C[C@@H]2O)OCO3 [Chelidonine] | 0.955
CC1(C)C(C(=O)Nc2ccc(S(=O)(=O)c3ccc(NC(=O)C4C(C)(C)C4(C)C)cc3)cc2)C1(C)C | 0.828
C[C@]12CC[C@@H]3c4ccc(OC(=O)N(CCCl)CCCl)cc4CC[C@H]3[C@@H]1CC[C@@H]2OP(=O)(O)O [Estramustine phosphate sodium] | 1.08
COc1cc2cc(c1Cl)N(C)C(=O)C[C@H](OC(=O)C(C)C)[C@]1(C)O[C@@H]1[C@H](C)[C@@H]1C[C@@](O)(NC(=O)O1)[C@H](OC)/C=C/C=C(\C)C2 [Ansamitocin P-3] | 0.499
COC(=O)[C@@H](N)CCCNC(=N)N[N+](=O)[O-] [L-NAME hydrochloride] | 1.08
O=c1ccc2cc(O[C@@H]3O[C@H](CO)[C@@H](O)[C@H](O)[C@H]3O)c(O)cc2o1 [Esculin] | 0.855
Cc1ccc(/N=C/N(C)/C=N/c2ccc(C)cc2C)c(C)c1 [Amitraz] | 0.902
NCC(CC(=O)O)c1ccc(Cl)cc1 (centres undefined) [Baclofen] | 1.09
CC(=O)O[C@H]1CC[C@H]2[C@@H]3CCC4=CC(=O)CCC4=C3C=C[C@]12C [Trenbolone acetate] | 1.15
CC(C)[C@]12O[C@H]1[C@@H]1O[C@]13[C@]1(O[C@H]1C[C@H]1C4=C(CC[C@@]13C)C(=O)OC4)[C@@H]2O [Triptolide] | 0.133
NC[C@H](CC(=O)O)c1ccc(Cl)cc1 [(R)-baclofen] | 1.07
CC(C)(C)c1cc(C=C(C#N)C#N)cc(Br)c1O | 0.934
CC(C)=CCC[C@](C)(O)[C@H]1CC[C@]2(C)[C@@H]1[C@H](O)C[C@@H]1[C@@]3(C)CC[C@H](O[C@@H]4O[C@H](CO)[C@@H](O)[C@H](O)[C@H]4O)C(C)(C)[C@@H]3CC[C@]12C [Ginsenoside Rh2] | 0.96 ± 0.11
CC(NC(C)(C)C)C(=O)c1cccc(Cl)c1 (centres undefined) [Bupropion hydrochloride] | 0.907
Cn1c(CCCC(=O)O)nc2cc(N(CCCl)CCCl)ccc21 [Bendamustine hydrochloride] | 1.15
CC1=C2C(=O)[C@H]3[C@@H](CC=C4C[C@@H](O)CC[C@@]43C)[C@@H]2CC[C@]12O[C@@H]1C[C@H](C)CN[C@H]1[C@H]2C [Jervine] | 0.899
O=C1CC[C@@]2(O)[C@H]3Cc4ccc(O)c5c4[C@@]2(CCN3CC2CC2)[C@H]1O5 [Naltrexone hydrochloride] | 0.865
COc1ccc2c(c1O)-c1c(OC)c(OC)cc3c1[C@H](C2)N(C)CC3 [(+)-Isocorydine hydrochloride] | 0.9
CC1(C)C(=O)N(c2ccc(C#N)c(C(F)(F)F)c2)C(=O)N1CCCCO | 1.23
Clc1ccc(OC[C@H]2CCN2)cn1 [Tebanicline hydrochloride] | 0.94
N[C@@H]1C[C@H]1c1ccccc1 [Tranylcypromine (2-PCPA) hydrochloride] | 1.12

Compound | cell viability
Cc1sc2c(c1C)C(c1ccc(Cl)cc1)=N[C@@H](CC(N)=O)c1nnc(C)n1-2 | 0.76
CN1[C@@H]2C[C@@H](OC(=O)[C@H](CO)c3ccccc3)C[C@H]1[C@@H]1O[C@@H]12 [Scopolamine HBr] | 0.901
COc1ccc(N(C(=O)Oc2c(C)cccc2C)c2ccnc(Nc3ccc(N4CCN(C)CC4)cc3)n2)c(OC)c1 | 0.944
COC1=C[C@@H]2[C@@H]3Cc4ccc(OC)c(O)c4[C@]2(CCN3C)CC1=O [Sinomenine hydrochloride] | 1.04
C/C(=C\c1csc(C)n1)[C@@H]1C[C@@H]2O[C@@H]2CCC[C@H](C)[C@H](O)[C@@H](C)C(=O)C(C)(C)[C@@H](O)CC(=O)O1 [Epothilone A] | 0.529
CC(O)(CS(=O)(=O)c1ccc(F)cc1)C(=O)Nc1ccc(C#N)c(C(F)(F)F)c1 (centres undefined) [Bicalutamide] | 1.21
CN1CCc2cc3c(cc2C1C1OC(=O)c2c1ccc1c2OCO1)OCO3 (single isomer, unassigned; (+)) [(+)-Bicuculline] | 0.971
CCOC(=O)c1cncn1[C@H](C)c1ccccc1 [Etomidate] | 1.11
CNC(=O)Oc1cccc2ccccc12 [Carbaryl] | 0.911
O=C([O-])C(Cl)Cl.[Na+] [Sodium Dichloroacetate] | 1.11
CO[C@H]1C[C@H](O[C@H]2CC[C@]3(C)[C@H]4CC[C@]5(C)[C@@H](C6=CC(=O)OC6)CC[C@]5(O)[C@@H]4CC[C@]3(O)C2)O[C@H](C)[C@H]1O[C@@H]1O[C@H](CO)[C@@H](O)[C@H](O)[C@H]1O [Periplocin] | 0.443
NCC1(CC(=O)O)CCCCC1 [Gabapentin] | 1.13
O=c1cccc2n1C[C@@H]1CNC[C@H]2C1 [Cytisine] | 1.18
CC(=O)O[C@H]1C(=O)[C@@]2(C)[C@H]([C@H](OC(=O)c3ccccc3)[C@]3(O)C[C@H](O)C(C)=C1C3(C)C)[C@]1(OC(C)=O)CO[C@@H]1C[C@@H]2O [Baccatin III] | 1
C[C@]12CC[C@H](O)C[C@H]1CC[C@@H]1[C@@H]2CC[C@]2(C)[C@@H](c3ccc(=O)oc3)C[C@H]3O[C@]132 [Resibufogenin] | 1.07
CC(C)(C)c1cc(C=C(C#N)C#N)cc(C(C)(C)C)c1O [Tyrphostin 9] | 0.865
O=C(O)c1nn(Cc2ccc(Cl)cc2Cl)c2ccccc12 [Lonidamine] | 0.991
N#C[C@H](O[C@@H]1O[C@H](CO[C@@H]2O[C@H](CO)[C@@H](O)[C@H](O)[C@H]2O)[C@@H](O)[C@H](O)[C@H]1O)c1ccccc1 [Amygdalin] | 0.879
COc1cc2c(c(OC)c1OC)-c1ccc(OC)c(=O)cc1[C@@H](NC(C)=O)CC2 [Colchicine] | 0.604
CN(C(=O)/C=C/c1ccoc1)[C@@H]1CC[C@@]2(O)[C@H]3Cc4ccc(O)c5c4[C@@]2(CCN3CC2CC2)[C@H]1O5 [Nalfurafine hydrochloride] | 0.992
